Reference: article PMC10726135
The list shows a part of the results. At the low end of the ranking, values are background and their order means little. Measured with an extract: partners may take part in the binding.

Biological target: T1, HNF4alpha2 (COS-7 nuclear extract) (UniProt P41235)
T1 sequence: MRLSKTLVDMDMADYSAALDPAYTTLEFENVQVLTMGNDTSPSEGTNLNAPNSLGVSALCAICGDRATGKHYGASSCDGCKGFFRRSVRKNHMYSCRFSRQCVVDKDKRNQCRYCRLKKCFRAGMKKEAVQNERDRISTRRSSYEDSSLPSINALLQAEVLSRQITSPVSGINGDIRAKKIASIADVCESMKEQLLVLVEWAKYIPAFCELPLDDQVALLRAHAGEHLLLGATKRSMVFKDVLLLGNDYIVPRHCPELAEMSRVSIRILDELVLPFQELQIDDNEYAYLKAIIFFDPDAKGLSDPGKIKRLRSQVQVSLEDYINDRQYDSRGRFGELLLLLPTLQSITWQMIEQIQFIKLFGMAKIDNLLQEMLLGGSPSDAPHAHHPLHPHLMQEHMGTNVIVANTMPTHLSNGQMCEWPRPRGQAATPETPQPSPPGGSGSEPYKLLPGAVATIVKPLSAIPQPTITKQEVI
Test: protein-binding microarray
Settings: COS-7 nuclear extract on double-stranded Agilent 4x180k PBM; binding buffer, salt, pH and temperature not given; high values mean tight binding; double strand, one strand shown; sequences stand for … in …GCCTAGGGAGATTAGAGTATCGGTCGA

Sequence | binding signal (log2 normalized intensity)
GTGGGAAATCATTCCAGCTATTCTGCCTTA | -1.1
GTGAGTGTGTTGGCAAGAGATCTGCAGGGT | 1.22
AGTTTGGTGGACTTTGGCCGTGAAGCCGTC | 6.2
AATATTTAGCTTTCAGTGACTGCTCATTCT | -1.02
CCAGTTCCCTCATTAGTAACTCCAGAGATA | -0.126
AACAAATTGTGTGCAACAGGAGCCCAGAGA | -0.938
GGTCCCACACACCTCAAATGCAGGTGAGAG | -1.23
TATCTCTCCAAGGTACTGTGAACTCCAGCT | -0.392
CCCCAAAGGCAGGCAGCATGGAATGACTTT | -0.848
GTAGGTAAACAGTGACTCATGCAAGCCTGA | -1.12
TACTCTCTTTGGAGTGCTCCCGCCTGACCT | 2.62
TAGTGTAGTTCCGCTGCTGTCTCGGGGCCA | -1.08
TCAGTTAAGGCTTTGAAGTAGGGGCTGCTG | -1.19
GCGGTTACTTCGAGTACATTGTAACCACCT | -0.503
CTAATGCCACCATTGATCTAACAGGAGGTG | 0.0793
ACCTTTGCCCTTCTTGTTAACCTCCTATGA | 2.69
CCACCTGGTGGCAATGTGTCAGAGAAGGAG | -0.945
GGGTATTTCCTAAACCAACTATAGAAAGCC | -0.85
ACTGTGTTGCAAATTATTACTCCCACCGTG | 0.753
CCAGCTGTCACCCAGCCAGAATTCTCCCTG | -1.09
GTCCGAACTCACTACAAACGCCTCTAAGCT | -1.12
ATCTTGGACTTGGGACTCTGCAGACTGGTG | 3.4
CCCCCACCTGTGAAGATAAGCTGTCAATTT | 1.74
CCTTTGTCCCGTTATGGCACCAAGAAACCT | 0.163
GGCAAGATTTTGTCCTGAGTTATTGGAAGA | 0.951

Sequence | binding signal (log2 normalized intensity)
CAACGTCCAGAGATTTGCTCGCATTCTTCC | -1.05
TGTGGGTTCAAATCCATTCAGCAGCGTGTA | 0.683
CTTAGACAGTAACCCTTGAGCTCTGCACAG | 0.901
TGAGGCTTTTGAGTCAATAATGGACAAGTT | 1.37
GGTACCCTGGCTTGTAATTCAAGACTATAG | -1.17
ATCTCTAAGCAAACATTCCTCCCTCCCTCT | 2.82
TCCCGGAACCGTCTGCCCAGAGCGGCAGCG | -1.14
TCTCTGTAGGTAAACAGTGACTCATGCAAG | 1.42
TAATCCCTTATGACGGACAAAGGGCTCTCT | -1.17
AACAGGCATCAACTCTATCATACTCAGCTA | -1.07
TCCTGACCAGGGGCCAGCAAGAGGTGACCC | 3.4
TTATTGTGAACTGGAGCAAAGGTCACTCTT | 5.15
TTTCTCCCCTGACTACCAGCCAGTAGGAGT | 1.69
AATTTAGATACTCACCAGTGGGCCCAGAGC | -1.21
CCGAGAATGCAGCCTTATCTTCCAGCCCTG | -1.16
TTGAGAACTTTGACACCGAGGCATATTTAA | 1.12
TCAAGCTCAATGCAACCAGTTGGTGGGTCA | 1.17
CACTCTCTGGGTTAAACGTGCAGCAATAGG | 1.43
CATGACCCTTTGCAGGTGGGAGAGGGGGAC | -0.835
AAAGCCCAAGGGATGTCCATGAGGAGTTAA | -1.02
GGCGTGCTGTGTACTTTGAACTGAAGGATA | 4.66
TAAGGACAACCGGTAGCACAACATACTTGG | -1.1
AGGGGCACTCTCTGTTATCAGACACAAGAA | -1.02
ACCAGAACTTCTTATCACTTGGTGGACATG | 1.45
TCAAAGGTCAAAGGGCATAGCCTCAGGGAC | 5.07

Sequence | binding signal (log2 normalized intensity)
GGGCAGCAAACCTACCTGAACTTTGCCCCA | 7.99
CAGGAATGTTCAAGAAGTTCCAAAGGCCAG | 1.58
CTGCTTCCAAAGAGCTCAACCTGTGAAAAT | 0.355
ATCAAATCCTAACATGCTGCAGGCATTTCT | -0.741
ACAAGGAGATGGCCCCTCTCTTTTATTATA | 0.132
TAAGGTTTCTCAGCCCCATCCCCCAATACA | 5.63
CAACTTTCTCCTCCAGGACCTTGCCCTTTA | 4.23
AGTGGCCTGAGGCAGCCAGTGAGTGCAGCA | -1.11
GTCTTACTGATGGGCAAAGTTTTCAAGAAT | 0.966
AGACAGAAGTAAAACAGGTAGAGAGCTGTC | -1.17
CCATCTTGTGGCCATGCTTAGGACTGCAGG | 0.426
TCTGCTGTACATATTTGCCAAGTGATAAGG | 1.43
CAGAGTTCACCCCATTTTGTCCCTCCCTGC | 3.99
TGTGAGCCAATTCAGCAAACAAAGGCACTT | -0.475
AAGAAGCTCTGGCGCCATCTGGTTTCTTTA | -1.26
TACACAGCAGCTTTAGTCAGAGATTTCTTT | -1.14
TGCAATGAAAGTCCACTTGTCTGGCCTTCC | 1.47
CCTCTTTCCTGCAGGCCCATCTGGGACTTC | 1.33
TTGGTTCAAGAGAAATGTTATCTCAGTAGA | -1.14
CATGCTATGCTCTCTCTCCACCTGGAGGGA | -1.03
ATTTTACTACTAACCGAAAGTCTGACCCTT | 4.54
CAAGGGCATTTGCGTAGGCTGTCAGAGTGC | -0.194
TCTAAGGCAAAACACCCCTTTCACTTCTTC | 1.01
ATTTTTCCCTTTGATATTTATCAAGATGAA | 0.736
GGATTCTGGCTAAACCAGCCTAACAGGATT | -1.14

Sequence | binding signal (log2 normalized intensity)
CTGCTAAACCAACACCAGCAACCGCCTACC | -1.04
CTTGTTTTGGGGGTTGGTATTACAAAGCAA | 1.34
CAGCTCTCTCCCTTATCTGAATTCCAGCAT | -1.02
GAGTTAACTATTGAGACTTTGGGGTTTTAT | 0.792
GACCTGACACCCGCTGGCGCCATCCAAAGG | -1.21
GGTGACCGGACACAAAAGCTGCTGCCAAGC | -1.02
CTTATCTTTGACCTTACCAGCCCACTCTTA | 1.9
GGGTCAGAACCTGCCCATGACCTTTGGACT | 11.1
GCTTTAAAATGGGTACAGACAATAGGAAGA | -0.121
CTGGCATCTGGTCAGGGGTCAAGAAGCTCT | 2.21
ACATACTTGGAGACAGTCACTCCCACCCTT | 2.67
GGAGGCCGCGACAAGCGTCGCTGAGTGGAG | -1.04
ACACACGTTCCTGACAGACTGCCATTCCAG | -1.19
TTCTAGGTAGATAAGGGAGTTTCAGAGGAC | -1.14
GTCCAAGAAAAAGGAGCAGATGGCTAGTGA | -0.599
GGGGTCAGATAATTCTTTGCTGTGGTAGGC | 1.04
GACTTTAATCTCCAAGTAACTGAAACTACA | -1.13
CCTAAGCCCTGCCACCCCCGTTAATTTCTA | 2.86
AAAGATCAGTGTACTTAAAAATGCCTTTCA | -1.1
AGATAATGGGGGAGCCACTGCAGCTTTCTG | -1.1
AAAAAAAAAAAAGAACACAGTGTAGAAGGC | -1.02
GACCTCAATGTGCTCATCCATAAAATGGGG | 0.0579
ATACACCTTGCCTGGCTACCTCTTAGCTAC | -1.08
CTATCAGTTGAGATTTATTCCCAGGTTCCA | 0.371
TAACCTTTGGCTGGTAGAGCAGGTTTCAGA | 1.84

Sequence | binding signal (log2 normalized intensity)
GGGGACTTCACATGCCTTTGTAGTTACCCA | 0.0234
ATATCATTAACCTATTATTTTATAGAAAAG | 1.15
CTGCGTTTCTCCTCTCTGGGCTTCCATTGT | 1.2
CCAGATGTCTGGCTAAGACCTTTAGTTAGC | 0.978
CCCTGGACTCAGCTCCCATAGAGTCCACCA | 2.26
CTTCATGGAGAGAATTCCCATCCCACTAGG | -1.16
CCAGGTTGCATCAGCTGGGCTCGGCGCTCC | -1.06
CACCCAGAACTTTGACCGTTTGATTATTTG | 2.56
TCTCTGTAACATTCCTAGATATCAGGAAGG | -0.456
CCTAAAAGCTTTCTTGGGCAAGAAAGGGGT | -0.934
TCCAAAACATTGTAGAATTATCCAGATCAA | -1.13
TCCCTCATATAATTTACATAACAGGTTTGT | 2.1
ATAAGATGAAGCTCTCAGAATAGCAAATCT | -1.16
CTGACCTTTACCCATTCCTTAGTGCATGGG | 3.13
TCTTTTCTAAGATATTTGCATAGGCATTGT | 1.94
ATTGAGGCCAGCAAAGGGCAAGTAAATGTG | 0.468
TGTTTGCAGATGGTTTCATCTGGTTTCTGT | 1.9
GATCAGGGCCCCTTCCTGGGGGAGTTTCCT | -1.26
AGGAGTCCACTGTGTTCTTGTTTGCTAAGT | 1.48
GGATGGCCATTGTTCATACTGCAGCTCTGC | -1.21
TCCCAGCCCCTAGCCCTAAGCAGGCACATT | 2.47
TTCTGATTTGATAAGATGTGTAAAACACAA | 1.1
TTTGGGCATACAAAACAACCACTCTTATCA | -1.11
TTGGTCTGCTGAGTCTCATGATTAGATTGA | 0.746
AAGGCTGTTTGCACCGTGTGCTTTGTAGCA | 0.242

Sequence | binding signal (log2 normalized intensity)
ACTTTGACCTAGAAGCCAGGGACCAGGAAG | -1.2
TTTCAGTGCCCTTTGAGATTTGCATTCATG | 1.92
AGAGGGCCTCTAGCCCAATATTTGCTTACC | -1.14
ATCAGAGATGGATTACATGGGAGATAGAGC | -1.16
GATAAGGGCCACAGATGGCCTCACTCGGTG | -1.22
AATTTGTCTAGCGCAAATGATCAAAGGTTG | 3.72
ATCTGCAAATGCTTCTCCTGGCTTTAGATA | -0.74
GCTGAGGCCCAGGAAGCTCCAGCGGGGTTT | -1.18
CTCTGGCCACTGCAGGGAGGACAGACTCTG | -0.749
TATCAGCTTTGAGACACCTGGCCAAGTACA | -1.09
CACATTCCTAGACCTTTGACCTTTATACCT | 7.82
TCTCAGGGTCCACATTCCAGGAATATTCAG | 0.532
TCCAAAGTTCTGAATGAGCAGACTGAGTTG | 0.444
ATATGAAAGAGCCATGGACTGCTGACCTTT | 6.32
TCCTCCCCTCCCCTCCCCCCACTCAAAATA | 6.79
TTGATGCCTGTTGCTCAGAATTACTGACTC | 0.588
GAACTGAGTTTAGAATTTGAACTATGGTCA | 4.54
CATGGGCTGTCACCTTTACCCCCACTCTCC | 4.46
GCTCTGGGCTAGTCCCTGAGTATTATCTTT | 0.693
CTTATACTTGAGGTATGATGCATCCTGAGG | 1.03
